# The other results are listed elsewhere or left out. These are noisy estimates, calculated here from bound and input reads.
# Target: T1, Pho4 (S. cerevisiae) (UniProt P07270)
# T1 sequence: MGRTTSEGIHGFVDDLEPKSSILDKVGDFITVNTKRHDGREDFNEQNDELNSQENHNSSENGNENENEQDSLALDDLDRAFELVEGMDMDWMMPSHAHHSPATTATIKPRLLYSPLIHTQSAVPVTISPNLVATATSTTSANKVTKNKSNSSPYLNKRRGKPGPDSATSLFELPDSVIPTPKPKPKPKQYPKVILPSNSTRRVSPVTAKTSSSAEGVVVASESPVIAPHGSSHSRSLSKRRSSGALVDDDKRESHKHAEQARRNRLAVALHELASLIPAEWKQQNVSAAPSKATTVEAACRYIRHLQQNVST
# Test: relative binding free energy (BET-seq); higher = weaker binding
# Details: reference: library average
row,Sequence,relative binding free energy
1,GTTAGCACGTGAGTGC,0.28 kcal/mol
2,TTGATCACGTGCGTGG,-0.03 kcal/mol
3,ACTGTCACGTGAAGTG,0.38 kcal/mol
4,GTTGACACGTGTTAAT,0.06 kcal/mol
5,TACGGCACGTGTCGGG,-0.02 kcal/mol
6,TCGTGCACGTGCGGTA,-0.01 kcal/mol
7,GATAACACGTGTTTGG,0.15 kcal/mol
8,GGCGGCACGTGAATGT,0.24 kcal/mol
9,GTGTTCACGTGTCGGC,0.3 kcal/mol
10,AGATGCACGTGATGTG,0.04 kcal/mol
11,TCATGCACGTGTTGTA,0 kcal/mol
12,GTATGCACGTGGGAGG,0 kcal/mol
13,TAATTCACGTGTGTGC,0.38 kcal/mol
14,AAAAGCACGTGGATGG,-0.1 kcal/mol
15,GGGACCACGTGTGTGA,-0.03 kcal/mol
16,GTGGGCACGTGTTCAT,-0.07 kcal/mol
17,GTTTCCACGTGTAATT,0.34 kcal/mol
18,CATTACACGTGGGTGG,-0.07 kcal/mol
19,TTTGGCACGTGCTGGA,-0.1 kcal/mol
20,TGGGTCACGTGTCGAG,0.17 kcal/mol
21,TGGTGCACGTGACGTG,0.14 kcal/mol
22,TCTAGCACGTGTGAGT,-0.1 kcal/mol
23,GGATGCACGTGGATGG,0.01 kcal/mol

row,Sequence,relative binding free energy
1,TGTTTCACGTGAGCAC,0.59 kcal/mol
2,CTATTCACGTGGGATG,0.12 kcal/mol
3,GAAGTCACGTGAGGGT,0.35 kcal/mol
4,GAGGTCACGTGTAGCA,0.19 kcal/mol
5,TAGTGCACGTGTAAGA,0.13 kcal/mol
6,TGCGGCACGTGGAGAT,-0.04 kcal/mol
7,TTTATCACGTGATCTA,0.24 kcal/mol
8,TTAGACACGTGGCTTT,-0.11 kcal/mol
9,TCTTTCACGTGTCGTA,0.27 kcal/mol
10,TTGGGCACGTGGGAGT,-0.17 kcal/mol
11,TCACGCACGTGGATGG,0.03 kcal/mol
12,ATTTACACGTGCAGGT,0.27 kcal/mol
13,AGGTGCACGTGATGTG,0.06 kcal/mol
14,GGTTGCACGTGCTTAG,0.06 kcal/mol
15,TTTAGCACGTGGCTGA,-0.22 kcal/mol
16,TTCTTCACGTGCCGGT,0.29 kcal/mol
17,GTGGGCACGTGTTTGC,0.02 kcal/mol
18,AGTATCACGTGTGCGT,0.18 kcal/mol
19,TGCGTCACGTGAGTGT,0.25 kcal/mol
20,GTTGGCACGTGAGTAG,0.17 kcal/mol
21,GTGGGCACGTGGCGTC,-0.1 kcal/mol
22,GTGTTCACGTGGTTCG,0.4 kcal/mol
23,GTTGCCACGTGAGGCG,0.2 kcal/mol

row,Sequence,relative binding free energy
1,TTGATCACGTGGCGTG,0.02 kcal/mol
2,TCGCGCACGTGATGGG,-0.02 kcal/mol
3,CAATCCACGTGTGTGT,0.3 kcal/mol
4,TTCTTCACGTGGTTAA,0.26 kcal/mol
5,TGGACCACGTGGGGCT,-0.22 kcal/mol
6,TACGGCACGTGAGGAT,0.24 kcal/mol
7,TGTACCACGTGAATTT,0.28 kcal/mol
8,TGCGACACGTGTGGTG,-0.07 kcal/mol
9,TTAGGCACGTGTTAGC,-0.16 kcal/mol
10,GTATGCACGTGAGTTG,0.23 kcal/mol
11,CTAGGCACGTGAGGTG,0.17 kcal/mol
12,TTGGTCACGTGTTTTC,0.13 kcal/mol
13,GTTGGCACGTGGGTAA,-0.15 kcal/mol
14,AGTGTCACGTGCACTG,0.11 kcal/mol
15,TAATACACGTGTGTTT,0.14 kcal/mol
16,TTTTGCACGTGTACAA,0.09 kcal/mol
17,TGGACCACGTGCTGGT,0.01 kcal/mol
18,TGATGCACGTGTGGAA,-0.02 kcal/mol
19,AGTTGCACGTGCGAGT,0 kcal/mol
20,CGTAGCACGTGAGTTG,0.32 kcal/mol
21,TTTAACACGTGACGTG,0.14 kcal/mol
22,TGCGCCACGTGAGGGC,0.18 kcal/mol
23,TAGTTCACGTGGTTCT,0.3 kcal/mol

row,Sequence,relative binding free energy
1,TATGACACGTGAAGGA,0.24 kcal/mol
2,GTTGCCACGTGGAAGT,0.04 kcal/mol
3,AATGTCACGTGCGGAT,0.04 kcal/mol
4,TAACACACGTGTTGGG,-0.02 kcal/mol
5,GGTGTCACGTGGTGCT,0.16 kcal/mol
6,AATCTCACGTGTTGTG,0.08 kcal/mol
7,TTTATCACGTGCCGTT,-0.05 kcal/mol
8,AGTAGCACGTGTGTGG,-0.01 kcal/mol
9,GTTTGCACGTGAGAGG,0.19 kcal/mol
10,CTGTTCACGTGGTATA,0.18 kcal/mol
11,GTATCCACGTGGGCTT,0.03 kcal/mol
12,TAGGTCACGTGGATTA,0.1 kcal/mol
13,GGGCTCACGTGTTGTT,0.23 kcal/mol
14,GTTGTCACGTGATTCT,0.22 kcal/mol
15,TTCTACACGTGTAAGG,0.35 kcal/mol
16,TGTTGCACGTGTTCCG,-0.03 kcal/mol
17,ATTGACACGTGTGTAG,0.02 kcal/mol
18,TCGATCACGTGGTGAT,0.08 kcal/mol
19,TTTCGCACGTGAGCTT,0.09 kcal/mol
20,TATATCACGTGAGAAG,0.32 kcal/mol
21,GTGAGCACGTGTAGAG,-0.09 kcal/mol
22,GAAGGCACGTGGGTCT,-0.13 kcal/mol
23,GGGGGCACGTGAAATT,0.18 kcal/mol

row,Sequence,relative binding free energy
1,TAAGCCACGTGGTGGC,-0.07 kcal/mol
2,GGGTTCACGTGCGACT,0.45 kcal/mol
3,TTCTGCACGTGTTAGA,0.14 kcal/mol
4,GGATGCACGTGTTACG,-0.03 kcal/mol
5,ATATGCACGTGCGTAG,-0.16 kcal/mol
6,AGTGACACGTGGGCAG,-0.12 kcal/mol
7,CATGTCACGTGTGATG,0.14 kcal/mol
8,GGTTGCACGTGTATAA,0.04 kcal/mol
9,GCTTACACGTGAAGGT,0.48 kcal/mol
10,AGAGGCACGTGGGTCG,-0.27 kcal/mol
11,ATAGACACGTGTTTTG,-0.01 kcal/mol
12,ATTAGCACGTGTGGAA,-0.13 kcal/mol
13,ATGGGCACGTGAGGAA,0.07 kcal/mol
14,TTTGGCACGTGAAGGA,0.18 kcal/mol
15,AGGAACACGTGAAGGT,0.19 kcal/mol
16,GTAGGCACGTGTACTG,0.05 kcal/mol
17,TGGGGCACGTGTTGTA,-0.05 kcal/mol
18,CGTTTCACGTGAAGTA,0.46 kcal/mol
19,GAGGGCACGTGCTGCG,-0.11 kcal/mol
20,GTCGGCACGTGAAGGG,0.23 kcal/mol
21,GTAGACACGTGGCGAG,0.04 kcal/mol
22,GTGCGCACGTGGTTCT,-0.11 kcal/mol
23,TATTTCACGTGATAGA,0.26 kcal/mol
